According to the supplement of paper PMC4723716:
Whole data set: some 3,600 compounds, median “viability index relative to DMSO control” near 0.81, cut for the lowest 2% near 0.13. This is one part of the list.

The compounds below were run on Plasmodium falciparum NF54 stage V gametocytes (assay: viability index relative to DMSO control (fraction); higher = less gametocyte killing). Conditions: 1.25 µM, incubation time: 72 h.
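Note: 384-well serum-free SaLSSA: MitoTracker Red CMXRos staining with saponin lysis, high-content imaging, treated-well particle count divided by plate-mean count of DMSO wells.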

Structure (SMILES) | viability index
CC(CN1CCC(n2cc(C(=O)N3CCCC3)nn2)CC1)c1ccccc1 (centres undefined) | 0.976
COCCN1C(=O)C(O)=C(C(=O)c2ccccc2)C1c1ccccc1[N+](=O)[O-] (centres undefined) | 0.792
Cc1ccccc1CSc1ccc(-c2cccs2)nn1 | 0.827
COc1cc(-c2nc3ccc(N4CCN(C)CC4)cc3[nH]2)cc(OC)c1OC | 0.939
O=c1nc(C=Cc2ccc(Cl)cc2)oc2ccccc12 | 0.735
CC(=C(Cl)Cl)C(Br)=C(Br)CO | 0.892
COc1cc(OC)c(N(C)C(=O)c2cc3c(s2)-c2ccccc2S(=O)(=O)C3)cc1Cl | 0.286
C=CCc1cccc(C=NNc2nc3ccccc3[nH]2)c1O | 0.885
CCC1CCCCN1CCCNC(=O)c1cn(CC)c(=O)c2cc(OC)c(OC)cc12 (centres undefined) | 0.871
COC(=O)c1cn([C@@H]2C[C@@H](C(=O)NCc3cccc(C(F)(F)F)c3)N(C3CCN(Cc4ccccc4)CC3)C2)nn1 | 0.692
COc1ccc(C2CC(=O)C3=C(C2)NC(C)=C(C(=O)OC(C)C)C3c2cccc(Br)c2)cc1OC (centres undefined) | 0.958
Cc1cccn2c(NCc3ccccc3)c(-c3ccccc3OC(=O)C(C)Cl)nc12 (centres undefined) | 0.643
Cc1oc(-c2cccs2)nc1CN1CCC(CO)(CCOc2ccccc2)CC1 | 1.06
O=C(Oc1ccc(-c2ccc(OC(=O)c3ccco3)cc2)cc1)c1ccco1 | 0.907
CCOc1ccc2nc(C)cc(Nc3ccc(N(C)C)cc3)c2c1 | 0.896
CC1CC(C)CN(C(=O)c2sc3ccccc3c2Cl)C1 (centres undefined) | 0.769
O=C(Nc1ccc2nc3n(c(=O)c2c1)CCCCC3)C(=O)N1CCN(c2ccccc2)CC1 | 0.423
COc1cc2ncnc(NC3CCN(Cc4ccccc4)CC3)c2cc1OC | 0.734
Clc1ccc(OCc2nc3ccccc3n2CCc2ccccc2)cc1 | 0.707
C[n+]1oc(C=Cc2ccccc2)cc1C=Cc1ccccc1 | 0.43
CCOC(=O)C1=C(C)NC2=C(C(=O)CC(c3ccccc3)C2)C1c1ccccc1Cl (centres undefined) | 1.14
CCOC(=O)c1c(Cl)nnc(-c2ccccc2)c1-c1ccccc1 | 0
CC(=O)c1ccc(N2CCN(Cc3cc(-c4ccnc5cc(Cl)ccc45)ccc3O)CC2)cc1 | 0.433

Structure (SMILES) | viability index
CC(C)CCNCC(O)Cn1c2ccccc2c2ccccc21 (centres undefined) | 0.683
COc1ccc2cc(C(C)=NO)ccc2c1 | 1.38
Cc1ccc(C2CC3=Nc4ccccc4N(C(=O)C(F)(F)F)C(c4ccc(OCc5ccccc5)cc4)C3=C(O)C2)cc1 (centres undefined) | 0.859
CCCCn1c(=N)n(CC(O)c2ccc(Br)cc2)c2ccccc21 (centres undefined) | 0.634
CCOc1ccc2cc(C#N)c(SCC(=O)N3CC(=O)Nc4ccccc43)nc2c1 | 0.746
O=S(=O)(c1ccc(Br)s1)N1CCN(c2ccccc2)CC1 | 0.805
CCCCc1c(C)nc2ccc(Br)cc2c1O | 0.692
Nc1ccc(-c2cc(N)n(-c3ccc(Oc4ccccc4)c(S(=O)(=O)O)c3)n2)cc1 | 0.829
CC(C)(C)NCC(O)Cn1c2ccc(Cl)cc2c2cc(Cl)ccc21 (centres undefined) | 0.398
CCCCCOc1ccc(/C=C2/N=C(c3ccccc3)OC2=O)cc1 | 0.837
O=C1CC(c2ccc([N+](=O)[O-])cc2)C2=C(CC(c3ccc(F)cc3)CC2=O)N1 (centres undefined) | 0.51
CN(C)c1ccc(NC(=O)C2C3C=CC(O3)C2C(=O)O)cc1 (centres undefined) | 0.812
CC1CCN(c2ncnc3sc4c(c23)CCC(C)C4)CC1 (centres undefined) | 0.892
CN(C=Cc1sc2ccc3ccccc3c2[n+]1C)c1ccccc1 | 0.527
COc1ccc(-n2nc(C(=O)NCc3ccccc3OC)c3ccccc3c2=O)cc1 | 0.664
Cc1ccc(C=NNc2ncnc3[nH]cnc23)cc1 | 0.529
CCOC(=O)c1c[nH]c2c(CC)cccc2c1=O | 0.783
COc1cccc(C(=O)NC(c2ccccc2OC)c2cc(Cl)c3cccnc3c2O)c1 (centres undefined) | 0.963
O=C(Nc1ccccc1)C(=Cc1ccncc1)NC(=O)c1ccccc1 | 0.75
CC[n+]1c(C=CN(C)c2ccccc2)sc2ccc(OC)cc21 | 0.645
CC(C)N(CCNc1ncnc2c1[nH]c1ccc(Cl)cc12)C(C)C | 1.08
CCCC(CCC)C(=O)Nc1ccc2c(c1)N(C(=O)CCCl)c1ccccc1CC2 | 0.717
CC(=O)N(C1=C(N2CCOCC2)C(=O)c2ccccc2C1=O)c1cccc(Cl)c1 | 0.0385

Structure (SMILES) | viability index
N#Cc1c2c(c(N3CCN(C4CCCCC4)CC3)n3c1nc1ccccc13)CCC2 | 1.03
Cc1nc(NCCCN(C)C)c2sc3nc4c(cc3c2n1)COC(C)(C)C4 | 0.963
COc1ccc2nc(Nc3nc(-c4ccccn4)cs3)sc2c1 | 0.331
O=c1c2ccccc2[nH]c2ccc(I)cc12 | 0.904
CC1(C)CC(=O)C2=C(C1)Nc1ccccc1N(C(=O)Cc1ccccc1)C2c1ccc([N+](=O)[O-])s1 (centres undefined) | 1.03
COc1cnc(-c2ccccn2)nc1NC(C)C | 0.0307
CCOC(=O)c1c(C)n(-c2ccccc2)c2ccc(OC(=O)c3ccco3)cc12 | 0.725
Cc1ccc(C(C(=O)NC2CCCCC2)N(C(=O)Cn2nnc3ccccc32)c2ccc(S(=O)(=O)NCC3CCCO3)cc2)o1 (centres undefined) | 1.13
CCN(CC)CCCC(C)Nc1ccnc2cc3ccccc3cc12 (centres undefined) | 0.971
CCOC(=O)C1=C(CC)NC2=C(C(=O)CC(C)(C)C2)C1c1ccc(Cl)cc1Cl (centres undefined) | 0.764
O=C(Nc1ccc2oc(-c3ccc(I)cc3)nc2c1)c1ccc([N+](=O)[O-])o1 | 0.0302
CN(CCCNc1ccc(C(=O)Nc2ccc(C(F)(F)F)cc2)cc1[N+](=O)[O-])Cc1ccccc1 | 1.01
CCCOC(=O)C1=C(C)NC2=C(C(=O)CC(c3ccc(OC)cc3)C2)C1c1ccc([N+](=O)[O-])cc1 (centres undefined) | 0.736
CCOc1ccc(-n2nc(C(=O)NCCCN(C)Cc3ccccc3)c3ccccc3c2=O)cc1 | 0.871
COc1ccc(Cl)cc1NC(=O)CSC1=C(C#N)C(c2ccccc2)C(C(=O)Nc2ccccc2)=C(C)N1 (centres undefined) | 0.798
CC(=O)N(C1=C(N2CCOCC2)C(=O)c2ccccc2C1=O)c1ccc(Br)cc1 | 0.408
CCN(CC)CCCC(C)Nc1cc(C=Cc2ccc([N+](=O)[O-])cc2)nc2ccc(OC)cc12 (centres undefined) | 0.728
CCOC(=O)c1ccc2nc3c(nc2c1)C(=O)c1ccccc1C3=O | 0.359
COc1ccc(-c2cc(-c3ccccc3)nc(SCC(=O)N3c4ccccc4Sc4ccc(Cl)cc43)c2C#N)cc1 | 1.11
CC(C)CCNC(=O)C1CSC(c2ccc(F)cc2)N1C(=O)c1ccc(Cl)cc1Cl (centres undefined) | 0.744
CCc1c(C#N)c(N)nc(SCC(=O)c2ccc(C)cc2C)c1C#N | 0.53
COc1ccc(C2NCCc3c2[nH]c2ccccc32)cc1CSc1nc2ccccc2[nH]1 (centres undefined) | 1.05
COC(=O)c1[nH]c2ccc(Cl)cc2c1NC(=O)C(C)N1CCN(C2CCCCC2)CC1 (centres undefined) | 0.991

Structure (SMILES) | viability index
Cc1ccccc1Cn1cc(NC(=O)c2cc(-c3cccs3)on2)cn1 | 0.968
CN1CCN(C(c2ccco2)c2sc3ncnn3c2O)CC1 (centres undefined) | 0.711
COc1ccc(C2=C(c3ccc(OC)cc3)C3(c4ccccc4)C(=O)C2(c2ccccc2)C2C(=O)N(c4ccc(OC)cc4[N+](=O)[O-])C(=O)C23)cc1 (centres undefined) | 0.781
O=C(NCCc1ccc(Cl)cc1)C1CCCN(c2nnc(N3CCCC3=O)s2)C1 (centres undefined) | 1.16
CC(C)(C)CC(C)(C)c1ccc(O)c(CN2CCN(CCC#N)CC2)c1 | 0.735
CCOc1c(Br)cc(C2C(C(=O)OC)=CN(C)C=C2C(=O)OC)cc1OC | 0.697
O=C1C(Nc2ccc(F)cc2)=C(N2CCCCC2)C(=O)c2ccccc21 | 0.675
COc1ccc(C2CC(=O)C3=C(C2)NC(C)=C(C(=O)OC2CCCC2)C3c2ccccc2C)cc1OC (centres undefined) | 0.71
O=C(CSc1nc(-c2ccccc2Cl)ns1)Nc1ccc2c(c1)OCCO2 | 0.479
CCOc1cc(C2CC(=O)NC3=C2C(=O)CC(c2cc(OC)ccc2OC)C3)ccc1O (centres undefined) | 1.04
Cc1ccc(-c2c3c(nc4sc(C(=O)Nc5cccc(C)c5)c(N)c24)CCC3)cc1 | 0.838
O=C(Nc1cc(Cl)cc(Cl)c1)C1C2C=CC3(O2)C1C(=O)N(CCC1=CCCCC1)C3C(=O)NC1CCCCC1 (centres undefined) | 1.12
C[n+]1ccc(C=Cc2ccc(O)cc2)cc1 | 0.784
O=C(NCc1ccc(Cl)cc1)C(=O)NCc1ccccn1 | 0.702
CCn1c(=NC(=O)c2cc(=O)c3ccccc3o2)sc2c(OC)ccc(OC)c21 | 0.917
O=C(/C=C/Nc1ccccc1NS(=O)(=O)c1ccc([N+](=O)[O-])cc1)c1ccccc1 | 0.878
C=CCSc1nc(Sc2ccc(Cl)cc2)c2sc3ccccc3c2n1 | 0.767
CCN1CCN(c2cc(C)c3cc(NC(=O)c4ccc(F)c([N+](=O)[O-])c4)ccc3n2)CC1 | 1.08
CCN1C(=Cc2sc3ccccc3[n+]2CC)Sc2ccccc21 | 0.918
O=C(c1cc2cc(Br)ccc2o1)N1CCc2c([nH]c3ccccc23)C1c1ccc(Cl)cc1 (centres undefined) | 0.888
